From PubChem BioAssay (NCATS)
Several values for one entry are separate records, joined by “and”; a condition that tells them apart may be missing. Identical values can stand only once. Inconclusive means that the source gave no clear call. Such entries were picked first, then a sample of the others. For some assays here: Potencies of inconclusive entries are doubtful fits and often do not repeat. Activity calls are given as the source filed them. Unless noted, calls come from the whole dose curve; as a rule, active = well fitted curve in the direction sought with a large enough effect; inconclusive = small, poorly fitted or top-dose-only effect, or another doubt; inactive = no such curve, though single readings can be large; an effect the other way counts as inactive or inconclusive.

Legend:
[1] = AP1 Signaling Pathway (AID 357; active = well fitted curve in either direction with a large enough effect, not every such curve was filed as active; inconclusive = small, poorly fitted or top-dose-only effect, or another doubt;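 note: ME-180 reporter cells stimulated with EGF at its EC50 level; top concentration of the series differs between compounds; % is set by controls: 0 for no effect and ±100 for the full control effect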); details: ME-180 AP-1-bla reporter, EGF-induced, beta-lactamase ratio, 5 h; at 7.69 µM (top of the series) unless noted
Outline: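 Titration-series screen for positive or negative modulators of EC50 EGF-induced signaling in ME-180 cells carrying an AP-1-driven beta-lactamase reporter. After 5 hours at 37 degrees Celsius, CCF4 460nm/530nm emission ratio gave %Activity; AC50 values derived.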

[2] = biological target: 3',5'-cyclic-AMP phosphodiesterase 4B (Homo sapiens) (UniProt Q07343); experiment: qHTS Assay for Inhibitors of PDE-IV (AID 607; active = well fitted activation curve with a large enough effect in the main read-out, with a control signal flat, not every such curve was filed as active; inconclusive = small, poorly fitted or top-dose-only effect, or effect the other way, or a change in a side signal; note: potency is the fitted concentration of half-maximal effect); details: HEK293 ACTOne CNG channel cells, membrane potential fluorescence; activation (PDE inhibition): at 22.9 µM (top of the series)
Chain of UniProt Q07343 (Q07343 whole entry, looked up): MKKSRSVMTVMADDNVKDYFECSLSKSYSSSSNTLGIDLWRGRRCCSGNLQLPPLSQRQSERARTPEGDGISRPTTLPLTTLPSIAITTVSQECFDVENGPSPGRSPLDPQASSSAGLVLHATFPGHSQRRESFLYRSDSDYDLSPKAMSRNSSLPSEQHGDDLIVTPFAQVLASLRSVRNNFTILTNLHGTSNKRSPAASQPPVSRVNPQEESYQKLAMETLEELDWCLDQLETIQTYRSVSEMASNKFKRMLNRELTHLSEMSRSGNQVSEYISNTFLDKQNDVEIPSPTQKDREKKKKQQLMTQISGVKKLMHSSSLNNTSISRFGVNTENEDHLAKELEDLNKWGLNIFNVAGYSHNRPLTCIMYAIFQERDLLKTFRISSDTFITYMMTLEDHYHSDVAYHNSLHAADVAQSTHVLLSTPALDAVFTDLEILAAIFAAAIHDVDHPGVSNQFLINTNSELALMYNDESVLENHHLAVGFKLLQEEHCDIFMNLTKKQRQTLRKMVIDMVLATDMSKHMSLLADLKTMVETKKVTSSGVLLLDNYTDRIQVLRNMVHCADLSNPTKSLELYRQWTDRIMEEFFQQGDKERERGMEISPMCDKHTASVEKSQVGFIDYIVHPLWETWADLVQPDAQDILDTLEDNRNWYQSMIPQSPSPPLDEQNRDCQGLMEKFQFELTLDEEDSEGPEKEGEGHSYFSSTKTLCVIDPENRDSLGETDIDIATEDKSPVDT
Outline: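 The readout is membrane depolarisation from a cAMP-sensing CNG channel, detected with a potential dye at ex 535/em 590. Cells were HEK293-derived (endogenous PDE-IV) at 1000 cells/well, titrated up to 22.9 uM final.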

[3] = biological target: Cytochrome P450 2D6 (Homo sapiens) (UniProt P10635); experiment: qHTS Assay for Inhibitors and Substrates of Cytochrome P450 2D6 (AID 891);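 note: luciferin methyl ether substrate demethylated by CYP2D6 with NADPH regeneration; potency is the fitted concentration of half-maximal effect; nearly all actives have a fitted effect of over 60% in size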
Chain of UniProt P10635 (P10635 whole entry, looked up): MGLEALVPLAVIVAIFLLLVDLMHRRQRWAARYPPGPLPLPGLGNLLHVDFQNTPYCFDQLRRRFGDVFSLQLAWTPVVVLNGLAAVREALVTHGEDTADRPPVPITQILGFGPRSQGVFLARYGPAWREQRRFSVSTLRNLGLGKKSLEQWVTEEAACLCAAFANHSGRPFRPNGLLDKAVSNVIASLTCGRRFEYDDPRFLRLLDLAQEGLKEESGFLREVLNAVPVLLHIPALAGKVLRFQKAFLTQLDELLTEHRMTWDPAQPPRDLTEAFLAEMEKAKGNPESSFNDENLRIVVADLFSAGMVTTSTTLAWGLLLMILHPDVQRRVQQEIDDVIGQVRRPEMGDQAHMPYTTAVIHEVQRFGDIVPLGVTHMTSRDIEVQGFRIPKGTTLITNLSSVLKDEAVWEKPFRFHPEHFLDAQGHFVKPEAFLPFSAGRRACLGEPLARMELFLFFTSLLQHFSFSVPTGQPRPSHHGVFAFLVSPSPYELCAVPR
Outline: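 Human CYP2D6 (5 nM) with 30 uM Luciferin-ME EGE (at Km) in 100 mM KPO4, compound preincubated 10 min, then NADPH regeneration system for 60 min at room temperature. Luciferin read by luminescence; normalized to 1.43 uM quinidine.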

[4] = qHTS Assay for Identification of Small Molecule Agonists for Hypoxia Response Element Signaling Pathway (AID 914; active = well fitted activation curve with a large enough effect in the signal ratio, with a control signal flat, not every such curve was filed as active; inconclusive = small, poorly fitted or top-dose-only effect, or effect the other way, or a change in a side signal; the % refers to the signal ratio; note: potency is the fitted concentration of half-maximal effect); details: ME-180 (cervical carcinoma) HRE-bla reporter, beta-lactamase ratio, CoCl2, 17 h; activation: active compounds read high
Outline: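 In Opti-MEM containing 0.5% dialyzed FBS and 10 mM HEPES, ME-180 HRE-bla cells received a compound titration and EC50 CoCl2. They were incubated 17 hours, then CCF4-loaded 2.5 hours at room temperature before ratio reading.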

[5] = Primary qHTS for small molecule stabilizers of the endoplasmic reticulum resident proteome: Secreted ER Calcium Modulated Protein (SERCaMP) assay (AID 1508630); details: SH-SY5Y GLuc-SERCaMP (Gaussia luciferase released on ER calcium loss) secretion, thapsigargin, luminescence; activity change, negative = inhibition: at 38.4 µM (top of the series) unless noted; note: potency is the fitted concentration of half-maximal effect; for activity change, negative = inhibition: % is set by controls: 0 for no effect and ±100 for the full control effect
Outline: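 GLuc-SERCaMP-expressing SH-SY5Y cells, pretreated 16 h with compound, are challenged with thapsigargin to empty ER calcium stores; after 4 h, coelenterazine is added directly to the medium and luminescence is imaged.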

[6] = biological target: Rap guanine nucleotide exchange factor 3 (Homo sapiens) (UniProt O95398); experiment: Confirmatory qHTS for agonist of cAMP-regulated guanine nucleotide exchange factor 3 (EPAC1) (AID 1645881); details: EPAC1 Rap1B BODIPY-GDP exchange fluorescence; activation: at 154 µM (top of the series), 100% = cAMP control response; note: nearly all actives have a fitted effect of over 75% in size; note: potency is the fitted concentration of half-maximal effect;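 for activation: EPAC1 catalysed release of BODIPY-GDP from Rap1B seen as fluorescence loss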
Chain of UniProt O95398 (O95398 whole entry, looked up): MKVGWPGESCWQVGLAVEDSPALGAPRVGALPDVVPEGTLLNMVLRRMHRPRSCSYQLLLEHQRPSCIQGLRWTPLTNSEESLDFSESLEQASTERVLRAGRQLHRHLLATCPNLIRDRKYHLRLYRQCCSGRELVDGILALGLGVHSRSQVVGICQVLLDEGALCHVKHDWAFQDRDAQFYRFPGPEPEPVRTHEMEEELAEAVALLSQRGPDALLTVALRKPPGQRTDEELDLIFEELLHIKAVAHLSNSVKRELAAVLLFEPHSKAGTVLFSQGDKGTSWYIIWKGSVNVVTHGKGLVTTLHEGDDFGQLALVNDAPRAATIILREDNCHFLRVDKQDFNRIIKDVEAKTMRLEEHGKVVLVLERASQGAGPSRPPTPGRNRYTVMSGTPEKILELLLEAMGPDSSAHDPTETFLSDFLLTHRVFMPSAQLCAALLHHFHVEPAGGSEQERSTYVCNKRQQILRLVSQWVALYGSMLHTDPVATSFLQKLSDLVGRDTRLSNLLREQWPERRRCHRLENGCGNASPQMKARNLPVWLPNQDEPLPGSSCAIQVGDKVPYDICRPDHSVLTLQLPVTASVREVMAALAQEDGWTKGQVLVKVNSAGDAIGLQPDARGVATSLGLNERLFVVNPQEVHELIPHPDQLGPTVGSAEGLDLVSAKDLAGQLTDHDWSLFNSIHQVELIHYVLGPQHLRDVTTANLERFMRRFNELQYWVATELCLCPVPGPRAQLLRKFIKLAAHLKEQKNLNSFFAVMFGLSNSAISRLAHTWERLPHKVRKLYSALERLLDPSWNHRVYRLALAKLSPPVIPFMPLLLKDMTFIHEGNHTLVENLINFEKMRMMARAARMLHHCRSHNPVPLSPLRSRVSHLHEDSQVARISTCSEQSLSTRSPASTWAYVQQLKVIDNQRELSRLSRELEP

[7] = biological target: Rap guanine nucleotide exchange factor 4 (Homo sapiens) (UniProt Q8WZA2); experiment: Confirmatory qHTS for agonist of cAMP-regulated guanine nucleotide exchange factor 4 (EPAC2) (AID 1645884); details: EPAC2 GEF activity, Rap1B-BODIPY-GDP fluorescence; activation: at 154 µM (top of the series), percent relative to cAMP agonist control;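 note: nucleotide exchange releases bodipy-GDP from Rap1 and this lowers its fluorescence; potency is the fitted concentration of half-maximal effect; nearly all actives have a fitted effect of over 65% in size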
Chain of UniProt Q8WZA2 (Q8WZA2 whole entry, looked up): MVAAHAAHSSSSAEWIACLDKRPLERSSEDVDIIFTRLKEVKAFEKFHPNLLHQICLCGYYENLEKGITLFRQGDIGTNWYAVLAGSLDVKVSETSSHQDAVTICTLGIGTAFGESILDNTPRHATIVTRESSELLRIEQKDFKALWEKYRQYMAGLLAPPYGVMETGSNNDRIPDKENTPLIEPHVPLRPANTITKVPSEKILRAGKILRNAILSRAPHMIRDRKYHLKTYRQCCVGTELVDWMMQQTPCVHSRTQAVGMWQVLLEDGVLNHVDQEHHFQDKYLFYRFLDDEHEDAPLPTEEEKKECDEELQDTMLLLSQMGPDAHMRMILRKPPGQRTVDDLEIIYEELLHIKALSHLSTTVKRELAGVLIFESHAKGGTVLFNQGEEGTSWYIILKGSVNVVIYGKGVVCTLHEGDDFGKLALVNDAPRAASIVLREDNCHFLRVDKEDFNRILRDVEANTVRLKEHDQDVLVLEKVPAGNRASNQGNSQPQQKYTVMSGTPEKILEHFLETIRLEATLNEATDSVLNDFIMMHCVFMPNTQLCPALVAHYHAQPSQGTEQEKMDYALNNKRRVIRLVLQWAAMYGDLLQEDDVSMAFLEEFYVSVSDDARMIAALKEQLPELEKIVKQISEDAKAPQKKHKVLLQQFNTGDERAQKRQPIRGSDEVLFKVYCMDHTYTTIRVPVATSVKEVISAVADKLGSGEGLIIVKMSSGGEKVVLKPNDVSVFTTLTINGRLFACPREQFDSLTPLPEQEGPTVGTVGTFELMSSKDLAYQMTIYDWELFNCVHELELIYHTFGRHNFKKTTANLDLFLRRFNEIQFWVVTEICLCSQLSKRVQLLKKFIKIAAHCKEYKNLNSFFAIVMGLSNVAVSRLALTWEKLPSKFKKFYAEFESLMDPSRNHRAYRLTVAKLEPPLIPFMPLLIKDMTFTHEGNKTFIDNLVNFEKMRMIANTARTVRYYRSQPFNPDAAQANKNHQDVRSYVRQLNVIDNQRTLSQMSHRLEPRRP

[8] = biological target: Luciferin 4-monooxygenase (Photinus pyralis) (UniProt P08659); experiment: Biochemical firefly luciferase enzyme assay for NPC (AID 624030);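 note: purified P. pyralis luciferase at 10 nM with luciferin and ATP substrate; 0% = DMSO and -100% = full luciferase inhibition by PTC124 control; nearly all actives have a fitted effect of over 70% in size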
Outline: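 Counter-screen for direct inhibition of the luciferase enzyme by approved-drug library compounds, run at 10 nM enzyme in 50 mM Tris acetate (final). Luminescence was read within 5 min of enzyme-buffer addition and normalized to PTC124 versus DMSO (0%).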

[9] = S16 Schwann cell PMP22 intronic element firefly luciferase assay (AID 624032); note: potency is the fitted concentration of half-maximal effect; nearly all actives have a fitted effect of over 30% in size
Outline: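 Rat S16 Schwann cells stably carrying a PMP22 intronic element-driven Fluc reporter were seeded overnight, then exposed to compounds for 24 h at 37 °C. Luminescence was normalized to PTC124 (positive control) and DMSO (0% activity).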

[10] = biological target: Cytochrome P450 2D6 (Homo sapiens) (UniProt P10635); experiment: Cytochrome P450 family 2 subfamily D member 6 (CYP2D6) small molecule antagonists: luciferase biochemical (cell-free) qHTS assay (AID 1645840; active = well fitted curve in the direction sought with a large enough effect in the repeat runs; inconclusive = weak or mixed curves; inactive = no such curve, though single readings can be large; an effect the other way counts as inactive or inconclusive; note: potency is the fitted concentration of half-maximal effect; nearly all actives have a fitted effect of over 55% in size)
Outline: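 P450-Glo luminescent screen: recombinant CYP2D6 enzyme–proluciferin substrate mix preincubated with compound 10 min at room temperature, then NADPH regeneration added for 1 h at room temperature. Detection reagent added for 20 min; luciferin light read as relative luminescence units.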

CP335 = experiment: qHTS profiling for inhibitors of Plasmodium falciparum proliferation (AID 504749);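 note: 0% = DMSO vehicle and full inhibition = artemisinin control; nearly all actives have a fitted effect of over 60% in size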; details: P. falciparum in erythrocytes, SYBR Green DNA, 72 h; series mostly up to 28.7 µM
Outline: (§1)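 Parasite proliferation within erythrocytes, 72 h exposure. Endpoint: SYBR Green I fluorescence after overnight lysis at room temperature. Controls: 0.29 uM artemisinin, DMSO.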

ICS = experiment: as above; details: P. falciparum in erythrocytes, SYBR Green DNA, 72 h; series mostly up to 28.7 µM
Outline: as §1

TAB165 = experiment: as above; details: P. falciparum in erythrocytes, SYBR Green DNA, 72 h; series mostly up to 28.7 µM
Outline: as §1

[11] = biological target: Mitogen-activated protein kinase 10 (Mus musculus) (UniProt Q61831); experiment: JNK3 AlphaScreen Assay (AID 530; active = well fitted curve in either direction with a large enough effect, not every such curve was filed as active; inconclusive = small, poorly fitted or top-dose-only effect, or another doubt;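 note: kinase came from lysate of stimulated human HepG2 cells; signal reports phosphorylation of biotinylated GST-cJun 1-79 at Ser73 with 10 µM ATP; potency is the fitted concentration of half-maximal effect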); details: JNK3 lysate, c-Jun phosphorylation; activity change, negative = inhibition: at 57.1 µM (top of the series)
Outline: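 Inhibitors reduce antibody binding to phosphorylated biotin-cJun, lowering AlphaScreen luminescence. Lysates from HepG2 cells pre-activated by IL-1beta plus TNF-alpha supplied JNK3; compounds were titrated.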

[12] = Primary qHTS for inhibitors of nuclear receptor binding SET domain protein 2 (NSD2) in an isogenic RCH-ACV NSD2 p.E1099K mutant (9B) (AID 1645876); note: potency is the fitted concentration of half-maximal effect; nearly all actives have a fitted effect of over 70% in size
[13] = biological target: Cytochrome P450 3A4 (Homo sapiens) (UniProt P08684); experiment: qHTS Assay for Inhibitors and Substrates of Cytochrome P450 3A4 (AID 884); details: recombinant CYP3A4, Luciferin-PPXE luminescence; activity change, negative = inhibition: at 57.1 µM (top of the series); note: potency is the fitted concentration of half-maximal effect; nearly all actives have a fitted effect of over 50% in size
Chain of UniProt P08684 (P08684 whole entry, looked up): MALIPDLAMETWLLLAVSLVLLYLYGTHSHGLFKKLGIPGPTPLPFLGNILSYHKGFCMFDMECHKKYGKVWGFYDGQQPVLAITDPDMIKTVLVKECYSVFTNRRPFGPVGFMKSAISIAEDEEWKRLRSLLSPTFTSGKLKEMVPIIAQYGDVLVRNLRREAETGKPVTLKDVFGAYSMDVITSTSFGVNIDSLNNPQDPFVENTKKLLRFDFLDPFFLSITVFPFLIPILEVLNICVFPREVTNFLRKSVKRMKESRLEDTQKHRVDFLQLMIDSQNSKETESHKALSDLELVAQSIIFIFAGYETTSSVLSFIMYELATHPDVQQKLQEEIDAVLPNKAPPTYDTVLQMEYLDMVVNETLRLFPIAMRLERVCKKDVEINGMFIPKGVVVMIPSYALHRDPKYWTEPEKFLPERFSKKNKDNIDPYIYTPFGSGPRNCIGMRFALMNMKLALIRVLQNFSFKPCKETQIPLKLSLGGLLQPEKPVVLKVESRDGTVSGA
Outline: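 20 nM human CYP3A4 with 25 uM Luciferin-PPXE (at KM) in 200 mM KPO4, preincubated 10 min with compound; NADPH regeneration started a 60 min RT reaction. Luciferin detected by luminescence, normalized to 57 uM ketoconazole as full inhibition.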

[14] = biological target: Rap guanine nucleotide exchange factor 3 (Homo sapiens) (UniProt O95398); experiment: Confirmatory qHTS for antagonist of cAMP-regulated guanine nucleotide exchange factor 3 (EPAC1) (AID 1645880); details: EPAC1 Rap1B-BODIPY-GDP exchange, fluorescence; activity, negative = inhibition: at 115 µM (top of the series); note: nearly all actives have a fitted effect of over 55% in size; note: potency is the fitted concentration of half-maximal effect;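 for activity, negative = inhibition: plate controls were DMSO only for no effect and full effect of the ATA control for full effect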
Outline: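 Nucleotide exchange uses 100 nM EPAC1, 250 nM RAP1B-BODIPY-GDP and 50 uM GDP, with compounds in a concentration-titration series. After 5 min at room temperature, fluorescence (480 nm ex/540 nm em) is read every 5 min for 30 min. Data are normalized to control ATA and DMSO.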

[15] = biological target: Rap guanine nucleotide exchange factor 4 (Homo sapiens) (UniProt Q8WZA2); experiment: Confirmatory qHTS for antagonist of cAMP-regulated guanine nucleotide exchange factor 4 (EPAC2) (AID 1645885); details: activity change, negative = inhibition: at 12.7 µM (top of the series) unless noted; note: potency is the fitted concentration of half-maximal effect; nearly all actives have a fitted effect of over 25% in size
[16] = biological target: Cytochrome P450 2C9 (Homo sapiens) (UniProt P11712); experiment: qHTS Assay for Inhibitors and Substrates of Cytochrome P450 2C9 (AID 883); note: potency is the fitted concentration of half-maximal effect; nearly all actives have a fitted effect of over 60% in size
Outline: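 Human CYP2C9 (10nM) hydroxylated Luciferin-H (100uM, at its KM) to luciferin in 25mM KPO4. Compound was preincubated 10 min at 37C, then NADPH regeneration started a 60 min reaction at 37C. Luminescence was read after detection reagent, normalized to 57uM sulphaphenazole.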

[17] = biological target: Dual specificity protein kinase CLK4 (Homo sapiens) (UniProt Q9HAZ1); experiment: qHTS Assay for Inhibitors of CDC-like Kinase 4 (Kinase-Glo Assay) (AID 1770); note: potency is the fitted concentration of half-maximal effect; nearly all actives have a fitted effect of over 65% in size
Chain of UniProt Q9HAZ1 (Q9HAZ1 whole entry, looked up): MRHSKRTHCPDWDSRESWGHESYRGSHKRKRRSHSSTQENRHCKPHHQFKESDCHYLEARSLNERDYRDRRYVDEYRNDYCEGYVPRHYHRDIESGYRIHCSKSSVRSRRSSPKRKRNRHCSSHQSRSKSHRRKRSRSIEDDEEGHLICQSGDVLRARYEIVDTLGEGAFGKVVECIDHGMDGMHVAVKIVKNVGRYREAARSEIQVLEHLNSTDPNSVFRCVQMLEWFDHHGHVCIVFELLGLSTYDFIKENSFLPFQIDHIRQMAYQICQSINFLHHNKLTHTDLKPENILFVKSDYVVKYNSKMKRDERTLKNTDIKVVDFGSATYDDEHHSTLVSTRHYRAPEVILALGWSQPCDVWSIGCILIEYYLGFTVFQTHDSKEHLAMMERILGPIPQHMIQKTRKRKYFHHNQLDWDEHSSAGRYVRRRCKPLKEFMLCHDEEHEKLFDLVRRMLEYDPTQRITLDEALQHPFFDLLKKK
Outline: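 Recombinant human Clk4 (25 nM) phosphorylated RS repeat peptide (100 uM) with 1 uM ATP in Tris pH 7.5/MgCl2/EGTA/DTT/Triton buffer for 4.5 h at room temperature. Residual ATP was quantified by Kinase-Glo luciferase luminescence.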

[18] = biological target: Dual specificity protein kinase CLK4 (Homo sapiens) (UniProt Q9HAZ1); experiment: qHTS Assay for Inhibitors of CDC-like Kinase 4 (ADP-Glo Assay) (AID 1771); note: potency is the fitted concentration of half-maximal effect; nearly all actives have a fitted effect of over 70% in size
Outline: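 25 nM Clk4 with 100 uM RS repeat peptide and 1 uM ATP (final) in buffer with 2 mM MgCl2, 0.5 mM EGTA, 2.5 mM DTT, 0.01% Triton X-100; 1 h at room temperature; ADP-Glo luminescence for ADP formed.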

[19] = biological target: Dual specificity protein kinase CLK4 (Homo sapiens) (UniProt Q9HAZ1); experiment: qHTS Assay for Inhibitors of CDC-like Kinase 4 (ADP-FP Assay) (AID 1795); note: potency is the fitted concentration of half-maximal effect; nearly all actives have a fitted effect of over 60% in size
Outline: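 Recombinant human Clk4 (6.25 nM) phosphorylated RS repeat peptide (100 uM) with 1 uM ATP in Tris pH 7.5/MgCl2/EGTA/DTT/Triton buffer for one hour. ADP was quantified by Transcreener competitive fluorescence polarization against an ADP calibration curve.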

[20] = biological target: Ubiquitin carboxyl-terminal hydrolase 1 (Homo sapiens) (UniProt O94782); experiment: Inhibitors of USP1/UAF1: Pilot qHTS (AID 504865);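 note: rhodamine fluorescence freed from ubiquitin-rhodamine substrate followed over time; potency is the fitted concentration of half-maximal effect; nearly all actives have a fitted effect of over 35% in size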
Chain of UniProt O94782 (O94782 whole entry, looked up): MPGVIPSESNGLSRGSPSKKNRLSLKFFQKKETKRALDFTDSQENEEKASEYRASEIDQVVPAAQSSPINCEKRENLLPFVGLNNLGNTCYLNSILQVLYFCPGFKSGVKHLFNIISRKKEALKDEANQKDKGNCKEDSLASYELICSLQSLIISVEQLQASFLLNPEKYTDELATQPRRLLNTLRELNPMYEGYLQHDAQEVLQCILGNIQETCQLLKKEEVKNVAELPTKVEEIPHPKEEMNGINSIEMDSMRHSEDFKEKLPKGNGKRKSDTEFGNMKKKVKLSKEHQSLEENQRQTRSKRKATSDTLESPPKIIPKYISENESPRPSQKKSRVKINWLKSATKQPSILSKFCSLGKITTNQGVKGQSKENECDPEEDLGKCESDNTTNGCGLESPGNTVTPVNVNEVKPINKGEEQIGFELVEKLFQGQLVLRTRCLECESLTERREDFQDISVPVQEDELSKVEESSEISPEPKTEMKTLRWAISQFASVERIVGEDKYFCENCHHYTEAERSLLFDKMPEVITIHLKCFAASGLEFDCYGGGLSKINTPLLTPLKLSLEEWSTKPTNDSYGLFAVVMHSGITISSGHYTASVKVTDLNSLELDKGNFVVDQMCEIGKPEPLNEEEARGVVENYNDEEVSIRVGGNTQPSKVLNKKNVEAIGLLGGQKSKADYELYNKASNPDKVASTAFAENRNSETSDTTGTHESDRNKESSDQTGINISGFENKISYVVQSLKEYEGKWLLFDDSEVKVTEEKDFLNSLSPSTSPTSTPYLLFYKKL
Outline: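 USP1/UAF1 complex (1nM) preincubated with compound 15 min at room temperature, then Ub-Rho substrate (150nM final) added. Fluorescence read kinetically at 480/540 nm, 6 reads every 60 seconds. Buffer: 50mM HEPES pH 7.8, 0.5mM EDTA, 0.1 mg/ml BSA, 1mM TCEP, 0.01% Tween-20.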
Tags give direction and shape of the fitted curve or compound fluorescence and quenching.

CN(C)c1ncc2nc(CCc3ccccc3)c(=O)n(-c3ccccc3)c2n1
inconclusive: activity change, negative = inhibition [1] 31.6% [activator] | Potency [2] 10 µM [activator, partial curve] | Potency [3] 2.51 µM [inhibitor, full curve] | Potency [4] 3.98 µM [activator, single point] | Potency [5] 31.6 µM [inhibitor, partial curve, poor fit] | Potency [6] 79.3 µM [activator, partial curve, poor fit] | Potency [7] 70.6 µM [activator, partial curve]

COC(=O)C(CN)c1c[nH]c2ccc(OC)cc12 (stereo not given)
inconclusive: Potency [9] 0.0023 µM [inhibitor, full curve, poor fit] | Potency [5] 10 µM [inhibitor, partial curve, poor fit] | Potency [10] 0.006 µM [inhibitor, full curve, poor fit]
inactive: Potency [8] | Potency (CP335) | Potency (ICS) | Potency (TAB165)

O=C(O)c1ccc2c3c1cccc3c(=O)n1c3ccccc3nc21
inconclusive: Potency [11] 2.51 µM [inhibitor, full curve] | Potency [2] 19 µM [inhibitor, single point] | Potency [5] 31.6 µM [inhibitor, partial curve] | Potency [12] 23.1 µM [inhibitor, partial curve, poor fit]

O=C(c1cnccn1)N1CCC[C@@]2(CCN(C(c3ccccc3)c3ccccc3)C2)C1
inactive: Potency [5] | Potency [14] | Potency [6]
inconclusive: Potency [13] 2.51 µM [inhibitor, full curve] | Potency [15] 31.2 µM [inhibitor, partial curve]

COc1ccccc1CNc1ncncc1-c1ccccc1OC
inconclusive: Potency [2] 12.6 µM [rising, partial curve] | Potency [16] 1.58 µM [inhibitor, partial curve, poor fit] | Potency [17] 35.5 µM [falling, single point] | Potency [18] 14.1 µM [falling, partial curve] | Potency [19] 20 µM [falling, single point] | Potency [5] 28.2 µM [inhibitor, single point] | Potency [14] 62.7 µM [inhibitor, partial curve, poor fit] | Potency [15] 35 µM [inhibitor, partial curve]
active: Potency [13] 0.199 µM

COC(=O)c1c(C)c2c(c(C)c1O)OC(=O)c1c(C)c(Cl)c(O)c(Cl)c1O2
inconclusive: Potency [20] 56.2 µM [inhibitor, partial curve, poor fit] | Potency [5] 11.2 µM [inhibitor, partial curve, poor fit] | Potency [14] 62.7 µM [inhibitor, single point] and 55.9 µM [inhibitor, single point]
